# Where “and” joins values, the source holds several entries; their conditions need not be identical. Identical values can stand only once. Hit rate of the full screen: of about 200,000 compounds, about 4,500 (2.2%) were called active. The inconclusive results got no clear call from the source; some entries with a clear call stand among them for comparison. The call rests on the fitted dose curve; in most records, active means well fitted inhibition curve with a large enough effect; inconclusive means small, poorly fitted or top-dose-only effect, or effect the other way; inactive means flat fitted curve, though single readings scatter. A potency beside an inconclusive call is a rough fit, not a confirmed value.
# Target: Cruzipain (Trypanosoma cruzi) (UniProt P25779)
# Assay: qHTS Assay for Promiscuous and Specific Inhibitors of Cruzain (without detergent); further: nearly all actives have a fitted effect of over 40% in size;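 on max response, negative = inhibition: plate controls were enzyme without inhibitor for no effect and buffer without enzyme for full effect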
# Conditions: purified cruzain, Z-FR-AMC fluorescence, no detergent
# Method in brief: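 Detergent-free condition (0.00005% Triton X-100) in acetate buffer pH 5.5 with DTT. 1.5 nM enzyme and compound were pre-mixed 15 min, then 2 uM Z-FR-AMC substrate added; reaction progress from fluorescence change between first and third reads (60 s).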
# Potency means the concentration at half of the fitted maximal effect; tags describe the fitted curve by direction and shape.
# Sequence of UniProt P25779 (P25779 whole entry, looked up): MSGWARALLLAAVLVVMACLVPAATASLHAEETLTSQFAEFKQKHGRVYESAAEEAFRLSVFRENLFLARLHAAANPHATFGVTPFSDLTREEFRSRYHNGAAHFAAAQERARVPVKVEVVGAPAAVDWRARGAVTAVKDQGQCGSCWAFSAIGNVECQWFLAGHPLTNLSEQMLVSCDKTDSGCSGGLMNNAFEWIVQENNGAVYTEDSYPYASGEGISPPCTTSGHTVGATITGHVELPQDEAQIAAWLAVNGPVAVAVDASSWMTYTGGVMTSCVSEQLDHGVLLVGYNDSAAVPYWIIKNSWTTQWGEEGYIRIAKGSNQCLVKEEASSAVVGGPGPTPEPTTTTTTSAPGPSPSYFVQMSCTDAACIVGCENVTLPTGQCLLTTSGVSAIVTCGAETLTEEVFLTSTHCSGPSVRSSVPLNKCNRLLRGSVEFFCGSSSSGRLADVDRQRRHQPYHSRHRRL
SMILES,Potency,"max response, negative = inhibition"
CC(=O)OC1CC(C)(C)N(OC(=O)CCCN2C(=O)c3ccccc3C2=O)C(C)(C)C1,"inconclusive: 20 µM [activator, partial curve]",
Cc1ccc(Cl)cc1Nc1nc(-c2sc(NC(=O)c3cccc(Cl)c3)nc2C)cs1,active: 3.98 µM,
Cc1cc(Cc2cc(C)c(N)cc2N)c(N)cc1N,,inactive: 6.43%
CC(C)(C)OC(=O)N1CCC(c2c(C(=O)Nc3ccc4c(c3)OCCO4)cnn2-c2ccc(F)cc2)CC1,,inactive: -1.77%
CCOc1ccc(S(=O)(=O)Nc2ccc(C(=O)N/N=C/c3c(C)nn(-c4ccccc4)c3N3CCCC3)cc2)cc1,"inconclusive: 31.6 µM [inhibitor, single point]",
COc1ccc(C2CC(c3ccccc3)=NN2C(=O)COC(=O)c2cccnc2Cl)cc1 (stereo not given),,inactive: 16.2%
CC(C)COc1cccc(C(=O)NC(=S)Nc2cccc(NC(=O)c3ccccc3Cl)c2)c1,"inconclusive: 31.6 µM [inhibitor, single point]",
COc1ccc(-c2nc3nc(C)cc(Nc4ccc(C(C)=O)cc4)n3n2)cc1,,inactive: 7.14%
Cc1cc(NC(=O)CS(=O)(=O)c2cn(Cc3ccccc3Cl)c3ccccc23)no1,active: 25.1 µM,
Cc1cc(C)cc(-n2c(SCC(=O)Nc3nnc(C)s3)nc3c([nH]c4ccccc43)c2=O)c1,,inactive: 2.62%
Cc1cc(OCC(=O)OCC(=O)Nc2cc(C(F)(F)F)ccc2N2CCOCC2)ccc1Cl,"inconclusive: 31.6 µM [activator, single point]",
Cc1coc2c(C)c3oc(=O)c(CC(=O)N4CCCCC4)c(C)c3cc12,,inactive: -9.7%
O=c1[nH]c(Cc2ccc(F)cc2)nc2scc(-c3ccc(F)cc3)c12,"inconclusive: 31.6 µM [inhibitor, single point]",
COc1cc2nc(SCC(N)=O)n(CCC3=CCCCC3)c(=O)c2cc1OC,"inconclusive: 12.6 µM [activator, partial curve]",
CCC(=O)Nc1ccc(Cl)c(NC(=S)NC(=O)c2ccco2)c1,,inactive: -3.5%
Cc1cc(C)c(S(=O)(=O)NCC2CCC(C(=O)N3CCC4(CC3)OCCO4)CC2)c(C)c1 (stereo not given),"inconclusive: 31.6 µM [activator, partial curve]",
COC(=O)c1ccc(NC(=O)Nc2nnc(N(C)C3CCCCC3)s2)cc1,"inconclusive: 31.6 µM [activator, partial curve]",
CCCOc1ccc(Nc2nc(SC)ncc2C(=O)OCC)cc1,,inactive: 24.3%
O=c1[nH]c(-c2ccccc2O)nc2ccccc12,"inconclusive: 31.6 µM [inhibitor, single point]",
C=CCn1c(SCCOc2ccc(OC)cc2)nnc1C(NC(=O)c1ccc(OC)cc1)C(C)C (stereo not given),"inconclusive: 39.8 µM [activator, single point]",
CC(=O)N[C@@H](Cc1c[nH]c2ccccc12)C(=O)OCc1cc(C(F)(F)F)cc(C(F)(F)F)c1,"inconclusive: 15.8 µM [activator, partial curve] and inconclusive: 20 µM [activator, partial curve]",
COc1cccc2c1Oc1nc(-c3ccccc3)nc(SCC(=O)N3CCCCC3)c1C2,,inactive: -4.9%

SMILES,Potency,"max response, negative = inhibition"
COc1ccc(CN2COc3ccc4c(C)cc(=O)oc4c3C2)cc1,"inconclusive: 39.8 µM [inhibitor, single point]",
CCCCCCNC(=O)c1cccc(-c2ccc(C)c3ccccc23)n1,,inactive: -12.2%
CC(NC(=O)CCn1c(=O)c2cccn2c2ccc(F)cc21)c1ccccc1 (stereo not given),,inactive: 6.19%
O=C(CNC(=O)c1ccccc1F)OCC(=O)N1CCCc2ccccc21,active: 10 µM,
CCCc1cc2c(n1Cc1ccc(C)cc1)C(C)C1CN(C(=O)c3ccccc3)C(C)(C(=O)OC)C21 (stereo not given),"inconclusive: 39.8 µM [activator, single point]",
O=C(Cc1nnc(NC(=O)Nc2ccc(Cl)cc2)s1)NCc1ccccc1,active: 10 µM,
CCN(C(=O)COc1cc(=O)n(C)c2ccccc12)c1cccc(C(F)(F)F)c1,"inconclusive: 39.8 µM [activator, single point]",
Cc1nn(-c2ccccc2)c(C)c1C(=O)OCC(=O)N1CCN(S(=O)(=O)c2ccccc2)CC1,"inconclusive: 25.1 µM [activator, single point]",
Cc1ccccc1CN1CCc2nc(Nc3ccc4c(c3)OCCO4)ncc2C1,"inconclusive: 31.6 µM [inhibitor, single point]",
CCCCSc1nnc(-c2ccc(NC(=O)CCc3ccccc3)cc2)n1C,"inconclusive: 31.6 µM [inhibitor, single point]",
COc1cc2c(cc1OC)CN(S(=O)(=O)c1ccc3c(c1)OCCO3)CC2,"inconclusive: 39.8 µM [activator, single point]",
CC(C)(C)NC(=O)NC(=O)COC(=O)c1cccc(F)c1,,inactive: -7.01%
Cc1ccc2c(c1)cc(CN(Cc1ccc3c(c1)OCO3)C(=O)c1cnccn1)c1nnnn12,"inconclusive: 39.8 µM [activator, single point]",
O=C(CN1CCCN(Cc2ccccc2Cl)S1(=O)=O)Nc1ccc2c(c1)OCCO2,,inactive: 13.7%
CCOC(=O)c1c(NC(=O)c2c(N)n(CCCOC)c3nc4ccccc4nc23)sc2c1CCCC2,"inconclusive: 5.01 µM [activator, single point]",
NC(=S)N/N=C/c1ccccc1OCc1cccc(Cl)c1,"inconclusive: 15.8 µM [inhibitor, partial curve, poor fit]",
Cc1ccc(S(=O)(=O)NCC(=O)OC(C(=O)c2ccccc2)c2ccccc2)cc1 (stereo not given),"inconclusive: 31.6 µM [inhibitor, single point]",
S[C@@H]1CCCN(Cc2ccccc2)C1,,inactive: -2.65%
COc1ccc(-n2c(/C=C/c3cc(OC)c(OC)cc3OC)nc3cc4ccccc4cc3c2=O)cc1Cl,,inactive: 19%
O=C(Cn1nc(N2CCN(c3ccccc3)CC2)ccc1=O)NCc1cccc(Cl)c1,"inconclusive: 39.8 µM [activator, single point]",
CCc1cccc(CC)c1NC(=O)COC(=O)c1cccc(-c2ccc(OC(C)=O)cc2)c1,"inconclusive: 12.6 µM [inhibitor, partial curve, poor fit]",
CCOc1ccc(NC(=O)NC(C)c2c(-n3cccc3)sc(C)c2C)cc1 (stereo not given),,inactive: -0.515%

SMILES,Potency,"max response, negative = inhibition"
COc1ccc(-c2nc(-c3ccc(NC(=O)c4ccc(Br)o4)cc3)no2)cc1OC,"inconclusive: 10 µM [activator, partial curve]",
CC1=C(C(=O)Nc2ccccc2)C(c2ccco2)C(C#N)=C(SCc2ccccc2)N1 (stereo not given),active: 20 µM,
CCCN1Cc2cccc(C(=O)Nc3ccc4c(c3)OCO4)c2C1=O,"inconclusive: 39.8 µM [activator, single point]",
CN(Cc1ccco1)c1cc(-c2cccc(NS(C)(=O)=O)c2)ncn1,,inactive: -10.7%
CCOC(=O)C1=C(O)/C(=C/c2ccc(OCC(=O)O)c(OC)c2)SC1=Nc1ccc(OC)cc1,"inconclusive: 3.98 µM [activator, single point]",
O=C(CN(c1cccc(C(F)(F)F)c1)S(=O)(=O)c1ccccc1)N1CCOCC1,"inconclusive: 31.6 µM [activator, single point]",
COc1cccc(-n2c(SCC(=O)N3CCc4ccccc43)nnc2-c2c[nH]c3ccccc23)c1,"inconclusive: 3.16 µM [activator, partial curve]",
COCCn1cc(C(=O)N2CCC(C)CC2)c2c3ccccc3n(C)c2c1=O,"inconclusive: 39.8 µM [activator, single point]",
COC1/C=C/OC2(C)Oc3c(C)c(O)c4c(O)c(c(/C=N/N5CCN(C)CC5)c(O)c4c3C2=O)NC(=O)/C(C)=C/C=C/C(C)C(O)C(C)C(O)C(C)C(OC(C)=O)C1C (stereo not given),"inconclusive: 15.8 µM [activator, single point]",
O=C(CSc1nnnn1-c1ccccc1)Nc1ncc(Cc2cccc(Cl)c2Cl)s1,"inconclusive: 5.01 µM [inhibitor, full curve, poor fit]",
Cc1oc2c(c1C(=O)Nc1ccc(Cl)cc1F)C1=NCCN1C=N2,,inactive: 1.88%
CC(C)CC12CN3CCN(CC(C3)C1O)C2 (stereo not given),,inactive: -1.34%
COc1cc2c(cc1OC)C(COc1ccc3c(C)cc(=O)oc3c1)N(C(=O)c1ccc(C)c(C)c1)CC2 (stereo not given),,inactive: -2.15%
Cc1ccc(C2CC(=O)Nc3c2ccc2ccccc32)cc1[N+](=O)[O-] (stereo not given),"inconclusive: 31.6 µM [inhibitor, single point]",
O=C(O)c1cc2c(s1)-c1ccccc1OC2,active: 25.1 µM,
Cc1ccc(N=Cc2c(O)n(-c3cc(Cl)ccc3N3CCOCC3)c(=O)c3ccccc23)cc1C,active: 6.31 µM,
O=C(Nc1cccnc1)C1CCCN(S(=O)(=O)c2ccccc2)C1 (stereo not given),,inactive: 2.99%
COCCn1c(SCC(=O)Nc2sccc2C(N)=O)nc2cc(Cl)ccc2c1=O,"inconclusive: 39.8 µM [activator, single point]",
CCC(=O)OCC(=O)C1(OC(=O)CC)C(C)CC2C3CCC4=CC(=O)C=CC4(C)C3(Cl)C(O)CC21C (stereo not given),"inconclusive: 39.8 µM [activator, single point]",
O=[N+]([O-])c1ccc(N/N=C/c2c[nH]c3ccccc23)cc1,active: 25.1 µM,
COc1ccc(N2CCN(C(=O)Cc3noc4ccc(C)cc34)CC2)cc1,"inconclusive: 31.6 µM [inhibitor, single point]",

# — PubChem BioAssay AID1476 (National Center for Advancing Translational Sciences (NCATS), 2009)
